Laboratory results from the supplement of paper PMC3334620.
In all, about 33,000 sequences were measured (“E-score (-0.5 to 0.5)”: median about -0.013, highest 2% from about 0.3 on). Some of the results follow.

Each sequence was assayed against T1, Msn1 (UniProt P22148) (assay: PBM E-score (8-mer binding enrichment) (E-score (-0.5 to 0.5)); higher = stronger / more preferred TF binding; most listed sequences are background and not binding sites). Settings: protein concentration: 200 nM; construct: GST-full length.
T1 sequence: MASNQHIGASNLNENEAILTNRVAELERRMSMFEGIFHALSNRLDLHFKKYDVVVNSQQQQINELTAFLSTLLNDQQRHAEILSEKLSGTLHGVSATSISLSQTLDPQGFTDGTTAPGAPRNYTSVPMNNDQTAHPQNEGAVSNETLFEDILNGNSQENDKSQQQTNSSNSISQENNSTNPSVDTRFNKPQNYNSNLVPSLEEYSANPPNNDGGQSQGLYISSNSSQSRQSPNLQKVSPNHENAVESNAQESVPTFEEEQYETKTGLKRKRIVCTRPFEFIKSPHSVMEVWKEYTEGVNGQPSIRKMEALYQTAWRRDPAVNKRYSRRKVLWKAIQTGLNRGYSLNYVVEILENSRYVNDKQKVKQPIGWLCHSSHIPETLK
Experimental: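 Universal 'all 10-mer' protein binding microarrays (Agilent AMADID 015681) probed with GST-tagged S. cerevisiae TFs (full-length or DBD) made by in vitro transcription/translation (PURExpress), about 100-200 nM. Bound TF was detected with fluorescent anti-GST. Each ungapped 8-mer (which stands for itself and its reverse complement) is scored by the PBM enrichment score (E-score), a modified Wilcoxon-Mann-Whitney statistic from -0.5 to +0.5, computed with the Universal PBM Analysis Suite. Scale: above 0.35 generally sequence-specific binding.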
AAAGTTAT was tested, and the “PBM E-score” value was 0.193. For GGTATGAA, the “PBM E-score” value was 0.00327. In the case of AAGATTGC, the “PBM E-score” value was 0.0886. With CTGCGTGA the “PBM E-score” value was -0.00745. GGGTTGCA was tested, and the “PBM E-score” value was -0.0668. With ATTATATC the “PBM E-score” value was -0.074. For CATGCACC, the “PBM E-score” value was -0.0246. In the case of CTCGAGTC, the “PBM E-score” value was 0.12. In the case of GAGCCCAA, the “PBM E-score” value was -0.121. In the case of ATGGAGAC, the “PBM E-score” value was 0.172. ATCTCGTA was tested, and the “PBM E-score” value was 0.0247. GCTAGCTA was tested, and the “PBM E-score” value was -0.149. In the case of CGAGGTGC, the “PBM E-score” value was 0.0666. AACGGAGT was tested, and the “PBM E-score” value was 0.0569. For ACGTAAGC, the “PBM E-score” value was -0.13. TACTAGAA was tested, and the “PBM E-score” value was 0.044. With GGTTAGAA the “PBM E-score” value was -0.307. In the case of CAAGGGTC, the “PBM E-score” value was -0.107. For GGCTCTAA, the “PBM E-score” value was 0.033. With AGCAAATA the “PBM E-score” value was 0.0897. CAGCCATG was tested, and the “PBM E-score” value was -0.121. In the case of CGTAACGC, the “PBM E-score” value was 0.00743. For CCCGCTTA, the “PBM E-score” value was -0.0594. With GCAGCTCC the “PBM E-score” value was -0.283. In the case of AGGTCAAG, the “PBM E-score” value was 0.0391. CGAAATAC was tested, and the “PBM E-score” value was 0.116. For GTTGCGTA, the “PBM E-score” value was 0.0763. In the case of AAGCTATA, the “PBM E-score” value was -0.0816. In the case of AATCACGA, the “PBM E-score” value was -0.0922. For CAACAGTC, the “PBM E-score” value was -0.0198. CGGTTTCC was tested, and the “PBM E-score” value was 0.138. In the case of CTCGTATC, the “PBM E-score” value was 0.0707. With AGGTACAT the “PBM E-score” value was 0.266. For CCCTAGGA, the “PBM E-score” value was -0.0892. With ATGGTCCA the “PBM E-score” value was -0.0274. For GACATCGC, the “PBM E-score” value was 0.273. For ATAAGGTG, the “PBM E-score” value was 0.133. For TCGGACAA, the “PBM E-score” value was 0.457. For TTAGATAA, the “PBM E-score” value was 0.0312. In the case of CGTGCATA, the “PBM E-score” value was 0.136. For GAATTATC, the “PBM E-score” value was -0.0192. CCCCATCC was tested, and the “PBM E-score” value was -0.2. In the case of CACAAAAC, the “PBM E-score” value was 0.0522. For CTGTCTGA, the “PBM E-score” value was 0.0827. In the case of ATGTCCGC, the “PBM E-score” value was 0.44. In the case of TCTGTCAA, the “PBM E-score” value was 0.0509. With TGAGCAAA the “PBM E-score” value was 0.0396. In the case of AGAACGCA, the “PBM E-score” value was -0.0363. For TCGATCAA, the “PBM E-score” value was 0.00802. In the case of AGTGCTAC, the “PBM E-score” value was -0.0814. CCAAGGAC was tested, and the “PBM E-score” value was 0.16. In the case of CAAGCTGC, the “PBM E-score” value was -0.114. In the case of CAATAACA, the “PBM E-score” value was 0.0401. With AGAATTGC the “PBM E-score” value was 0.04. ACAGACAC was tested, and the “PBM E-score” value was 0.288. With GCTCATCA the “PBM E-score” value was -0.031. For CCTACATC, the “PBM E-score” value was -0.00686. GCCATCCC was tested, and the “PBM E-score” value was -0.373. CGTGCTTA was tested, and the “PBM E-score” value was -0.0897. In the case of ACTATTCT, the “PBM E-score” value was 0.0295. For AGTTGACA, the “PBM E-score” value was 0.206. CCGGCGTC was tested, and the “PBM E-score” value was -0.13. With ACCGCATA the “PBM E-score” value was 0.0316. For CTCGCGTC, the “PBM E-score” value was 0.0566. For CAATATAC, the “PBM E-score” value was 0.0211. ACACCGAT was tested, and the “PBM E-score” value was 0.0423. In the case of ACCCCAAT, the “PBM E-score” value was -0.0661. In the case of AGTCAGTC, the “PBM E-score” value was -0.0159. In the case of GAGCTAAC, the “PBM E-score” value was -0.149. For AATTCCGG, the “PBM E-score” value was 0.2. For ACTCAACC, the “PBM E-score” value was -0.0917. In the case of GCCGGCCA, the “PBM E-score” value was 0.0673. CCCATCCA was tested, and the “PBM E-score” value was -0.137. CGATGCCG was tested, and the “PBM E-score” value was -0.142. In the case of CGAGCGGC, the “PBM E-score” value was 0.0136. For CAAAGCAA, the “PBM E-score” value was 0.141. In the case of ATCCTATC, the “PBM E-score” value was -0.0721. With GTGAGACA the “PBM E-score” value was 0.315. With GCCAAACC the “PBM E-score” value was -0.192. In the case of ATAGGAAA, the “PBM E-score” value was 0.0636. With AGTCCTTC the “PBM E-score” value was -0.121. In the case of GCTCCTCA, the “PBM E-score” value was -0.38. In the case of ATAATTTC, the “PBM E-score” value was 0.106. With AGTCAGTA the “PBM E-score” value was 0.0349. For TATACTCA, the “PBM E-score” value was 0.0163. With CCGAAGAA the “PBM E-score” value was 0.13. ACGAACCC was tested, and the “PBM E-score” value was -0.313. AAGCGGTA was tested, and the “PBM E-score” value was 0.00644. ACGCGAGG was tested, and the “PBM E-score” value was 0.0738. For CCTCTATC, the “PBM E-score” value was -0.164. AGTGTCAT was tested, and the “PBM E-score” value was 0.112. With AAGATAAA the “PBM E-score” value was 0.267. In the case of GCTTCACC, the “PBM E-score” value was -0.178. In the case of CTCATCAG, the “PBM E-score” value was -0.046. TCTCCCAA was tested, and the “PBM E-score” value was -0.0533. For ATGTTTAG, the “PBM E-score” value was 0.122. AGGATTTA was tested, and the “PBM E-score” value was 0.0902. In the case of AGGACCGA, the “PBM E-score” value was -0.0701. CAGCGTGA was tested, and the “PBM E-score” value was -0.039. In the case of GACGAAAC, the “PBM E-score” value was 0.162. For ACATTCCC, the “PBM E-score” value was 0.274. For ATACCCAC, the “PBM E-score” value was -0.0338. In the case of ATTCGACG, the “PBM E-score” value was 0.0794. For AGTGTGGA, the “PBM E-score” value was -0.0579. In the case of TATTCAAA, the “PBM E-score” value was 0.202. ACTATGGC was tested, and the “PBM E-score” value was -0.195. In the case of AGGTTTGC, the “PBM E-score” value was -0.124. With GGTGCGCA the “PBM E-score” value was -0.0546. For GCGCGCGA, the “PBM E-score” value was 0.0948. With ACAGATGT the “PBM E-score” value was 0.0399. For AGTCGACT, the “PBM E-score” value was 0.154. In the case of ACTTGGAG, the “PBM E-score” value was -0.123. In the case of CAAATTTA, the “PBM E-score” value was 0.15. In the case of CATGCGAC, the “PBM E-score” value was 0.0575. With ACTCGTCC the “PBM E-score” value was 0.18. GAGCACAA was tested, and the “PBM E-score” value was -0.112. For CCGCCGCC, the “PBM E-score” value was -0.201. In the case of AATTGGAG, the “PBM E-score” value was -0.00784. For GCAAGCAA, the “PBM E-score” value was -0.105. GATCGTGC was tested, and the “PBM E-score” value was 0.105. For CTTCGAAG, the “PBM E-score” value was -0.0759. In the case of GAAAAGCA, the “PBM E-score” value was 0.0243. With CACCAGAC the “PBM E-score” value was 0.00954. In the case of GCACTGGC, the “PBM E-score” value was -0.208. AACGGTAG was tested, and the “PBM E-score” value was 0.0263. With ATGCTTAC the “PBM E-score” value was -0.191. In the case of CCACCGCA, the “PBM E-score” value was -0.233. TACATTCA was tested, and the “PBM E-score” value was 0.0713. For CCTTCCGA, the “PBM E-score” value was -0.182. GGTTTTAC was tested, and the “PBM E-score” value was -0.222. In the case of CCCGCGCA, the “PBM E-score” value was -0.0768. TGACGACA was tested, and the “PBM E-score” value was 0.245. In the case of TACAGACA, the “PBM E-score” value was 0.371. For AGTTTCAT, the “PBM E-score” value was 0.12. For ACGCAAAA, the “PBM E-score” value was 0.0433. CCCCTACA was tested, and the “PBM E-score” value was -0.236. In the case of GCAGCATA, the “PBM E-score” value was -0.0938. In the case of CGCCTCGA, the “PBM E-score” value was -0.0954. With ATCCTCAG the “PBM E-score” value was 0.132. In the case of AACAAAGC, the “PBM E-score” value was -0.00117. In the case of AAGGAAGT, the “PBM E-score” value was -0.0916. ATCTTGTG was tested, and the “PBM E-score” value was -0.0155. With CCCCGGCC the “PBM E-score” value was -0.234. With CATAACCG the “PBM E-score” value was 0.0359. AGCATTCG was tested, and the “PBM E-score” value was -0.173. With ATCATAAC the “PBM E-score” value was 0.0912. GGATCTTA was tested, and the “PBM E-score” value was 0.0711. For CCAGTAGA, the “PBM E-score” value was -0.0137. In the case of CTAGAAGC, the “PBM E-score” value was -0.134. With AGGATGCC the “PBM E-score” value was -0.214. In the case of ACAGATTA, the “PBM E-score” value was -0.0624. With AGTAGAAC the “PBM E-score” value was -0.0741. In the case of ACCTTAGA, the “PBM E-score” value was -0.011. With AGAAGCTG the “PBM E-score” value was 0.00291. CAGGGCCG was tested, and the “PBM E-score” value was -0.158. AGTATAAC was tested, and the “PBM E-score” value was -0.0244. For CGGAGTCA, the “PBM E-score” value was -0.164. For GGTTAACA, the “PBM E-score” value was 0.0815. For CCCGGCTA, the “PBM E-score” value was -0.175. In the case of CAACCCTC, the “PBM E-score” value was -0.0735. For ATTGCTGC, the “PBM E-score” value was -0.0878. In the case of CCTGGCAC, the “PBM E-score” value was -0.242. For AATTAGTG, the “PBM E-score” value was 0.33. CTATTAAA was tested, and the “PBM E-score” value was 0.179. TCGTTCAA was tested, and the “PBM E-score” value was 0.103. GAATCCCA was tested, and the “PBM E-score” value was -0.15. With CAGGTCTC the “PBM E-score” value was -0.00322. TATCCCGA was tested, and the “PBM E-score” value was 0.0915. With ATCTTAAC the “PBM E-score” value was 0.168. CAAAAAGC was tested, and the “PBM E-score” value was 0.172. In the case of CGCGCGGC, the “PBM E-score” value was 0.0924. AGGTTTAG was tested, and the “PBM E-score” value was -0.15.
